Test results reported in article PMC9911399, “Two distinct binding modes provide the RNA-binding protein RbFox with extraordinary sequence specificity”.
Numbering of substitutions follows the chain as printed; changes in the protein carry UniProt numbers. The list shows a part of the results.

T1: RBFOX1 RRM RbFoxmut (Fox-RRM*) (Homo sapiens, UniProt Q9NWB1 109-208, R118D;E147R;N151S;E152T)
T1 sequence: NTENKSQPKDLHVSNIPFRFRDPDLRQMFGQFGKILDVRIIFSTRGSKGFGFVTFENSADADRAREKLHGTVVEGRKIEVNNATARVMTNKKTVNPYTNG

B1: UGCUUCU (DNA:RNA)
RNA: GGGAGACCGGAAUUCAGAUUGUCCUGCUUCUUUAAAUCCCGUCGUAGCCACCA
DNA 1: CAATCTGAATTCCGGTCTCCC
DNA 2: TGGTGGCTACGACGGGATT
B2: CUGAAUC (DNA:RNA)
RNA: GGGAGACCGGAAUUCAGAUUGUCCCUGAAUCUUAAAUCCCGUCGUAGCCACCA
DNA 1: CAATCTGAATTCCGGTCTCCC
DNA 2: TGGTGGCTACGACGGGATT
B3: CACAUGU (DNA:RNA)
RNA: B1 RNA with U25C, G26A, U28A, C30G
DNA 1: CAATCTGAATTCCGGTCTCCC
DNA 2: TGGTGGCTACGACGGGATT
B4: CGGUUCG (DNA:RNA)
RNA: B1 RNA with U25C, C27G, U31G
DNA 1: CAATCTGAATTCCGGTCTCCC
DNA 2: TGGTGGCTACGACGGGATT
B5: ACGCAUC (DNA:RNA)
RNA: B2 RNA with C25A, U26C, A28C
DNA 1: CAATCTGAATTCCGGTCTCCC
DNA 2: TGGTGGCTACGACGGGATT
B6: GACCCCA (DNA:RNA)
RNA: B1 RNA with U25G, G26A, U28C, U29C, U31A
DNA 1: CAATCTGAATTCCGGTCTCCC
DNA 2: TGGTGGCTACGACGGGATT
B7: UCACGCC (DNA:RNA)
RNA: B1 RNA with G26C, C27A, U28C, U29G, U31C
DNA 1: CAATCTGAATTCCGGTCTCCC
DNA 2: TGGTGGCTACGACGGGATT
B8: GCUGAGG (DNA:RNA)
RNA: B2 RNA with C25G, U26C, G27U, A28G, U30G, C31G
DNA 1: CAATCTGAATTCCGGTCTCCC
DNA 2: TGGTGGCTACGACGGGATT
B9: ACCCUCG (DNA:RNA)
RNA: B1 RNA with U25A, G26C, U28C, U31G
DNA 1: CAATCTGAATTCCGGTCTCCC
DNA 2: TGGTGGCTACGACGGGATT
B10: UCCCGGA (DNA:RNA)
RNA: B1 RNA with G26C, U28C, U29G, C30G, U31A
DNA 1: CAATCTGAATTCCGGTCTCCC
DNA 2: TGGTGGCTACGACGGGATT
B11: UAGUAAU (DNA:RNA)
RNA: B1 RNA with G26A, C27G, U29A, C30A
DNA 1: CAATCTGAATTCCGGTCTCCC
DNA 2: TGGTGGCTACGACGGGATT
B12: AGGUUCA (DNA:RNA)
RNA: B1 RNA with U25A, C27G, U31A
DNA 1: CAATCTGAATTCCGGTCTCCC
DNA 2: TGGTGGCTACGACGGGATT
B13: UUUAGCU (DNA:RNA)
RNA: B1 RNA with G26U, C27U, U28A, U29G
DNA 1: CAATCTGAATTCCGGTCTCCC
DNA 2: TGGTGGCTACGACGGGATT
B14: ACUUCGA (DNA:RNA)
RNA: B1 RNA with U25A, G26C, C27U, U29C, C30G, U31A
DNA 1: CAATCTGAATTCCGGTCTCCC
DNA 2: TGGTGGCTACGACGGGATT
B15: UACCACG (DNA:RNA)
RNA: B1 RNA with G26A, U28C, U29A, U31G
DNA 1: CAATCTGAATTCCGGTCTCCC
DNA 2: TGGTGGCTACGACGGGATT
B16: CCGGCCC (DNA:RNA)
RNA: B2 RNA with U26C, A28G, A29C, U30C
DNA 1: CAATCTGAATTCCGGTCTCCC
DNA 2: TGGTGGCTACGACGGGATT
B17: GUAAAUA (DNA:RNA)
RNA: B2 RNA with C25G, G27A, C31A
DNA 1: CAATCTGAATTCCGGTCTCCC
DNA 2: TGGTGGCTACGACGGGATT
B18: UCCUUCG (DNA:RNA)
RNA: B1 RNA with G26C, U31G
DNA 1: CAATCTGAATTCCGGTCTCCC
DNA 2: TGGTGGCTACGACGGGATT
B19: GCCGCUA (DNA:RNA)
RNA: B2 RNA with C25G, U26C, G27C, A28G, A29C, C31A
DNA 1: CAATCTGAATTCCGGTCTCCC
DNA 2: TGGTGGCTACGACGGGATT
B20: ACCGAUG (DNA:RNA)
RNA: B2 RNA with C25A, U26C, G27C, A28G, C31G
DNA 1: CAATCTGAATTCCGGTCTCCC
DNA 2: TGGTGGCTACGACGGGATT
B21: GGUUGCA (DNA:RNA)
RNA: B1 RNA with U25G, C27U, U29G, U31A
DNA 1: CAATCTGAATTCCGGTCTCCC
DNA 2: TGGTGGCTACGACGGGATT
B22: CGCCGUU (DNA:RNA)
RNA: B1 RNA with U25C, U28C, U29G, C30U
DNA 1: CAATCTGAATTCCGGTCTCCC
DNA 2: TGGTGGCTACGACGGGATT
B23: GGUACAC (DNA:RNA)
RNA: B2 RNA with C25G, U26G, G27U, A29C, U30A
DNA 1: CAATCTGAATTCCGGTCTCCC
DNA 2: TGGTGGCTACGACGGGATT
B24: ACAGCUG (DNA:RNA)
RNA: B2 RNA with C25A, U26C, G27A, A28G, A29C, C31G
DNA 1: CAATCTGAATTCCGGTCTCCC
DNA 2: TGGTGGCTACGACGGGATT
B25: UUUCAUC (DNA:RNA)
RNA: B2 RNA with C25U, G27U, A28C
DNA 1: CAATCTGAATTCCGGTCTCCC
DNA 2: TGGTGGCTACGACGGGATT
B26: AGUAAGA (DNA:RNA)
RNA: B2 RNA with C25A, U26G, G27U, U30G, C31A
DNA 1: CAATCTGAATTCCGGTCTCCC
DNA 2: TGGTGGCTACGACGGGATT
B27: UUGAUUU (DNA:RNA)
RNA: B2 RNA with C25U, A29U, C31U
DNA 1: CAATCTGAATTCCGGTCTCCC
DNA 2: TGGTGGCTACGACGGGATT
B28: GCAUGUC (DNA:RNA)
RNA: B2 RNA with C25G, U26C, G27A, A28U, A29G
DNA 1: CAATCTGAATTCCGGTCTCCC
DNA 2: TGGTGGCTACGACGGGATT
B29: CGAUGCC (DNA:RNA)
RNA: B1 RNA with U25C, C27A, U29G, U31C
DNA 1: CAATCTGAATTCCGGTCTCCC
DNA 2: TGGTGGCTACGACGGGATT
B30: CCUUGCU (DNA:RNA)
RNA: B1 RNA with U25C, G26C, C27U, U29G
DNA 1: CAATCTGAATTCCGGTCTCCC
DNA 2: TGGTGGCTACGACGGGATT

How the values were obtained:
[1] = target: T1, RBFOX1 RRM RbFoxmut (Fox-RRM*); test: EMSA; HiTS-Eq, 1 nM pool, 10 min; buffer printed only for the single-RNA assays: 10 mM Tris pH 7.5, 150 mM NaCl, 3.4 mM EDTA, 0.001% NP-40, 30 C; conditions: tags: His6 N-terminal (pET28a); label: 5' 32P
Procedure, shortened: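 These values rest on relative association constants, computed from read-count changes of each RNA species versus the control reaction and normalised to the cognate motif. Reads came from free RNA recovered by 8% native PAGE after purified RbFox RRM (wild type or mutant) at increasing concentrations was equilibrated for 10 min in 50 µL with 1 nM of a 5′-radiolabelled pool with 7 randomized nucleotides and DNA-annealed flanks.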

[2] = target: T1, RBFOX1 RRM RbFoxmut (Fox-RRM*); test: competition; 10 mM Tris pH 7.5, 150 mM NaCl, 3.4 mM EDTA, 0.001% NP-40, 30 C; conditions: tags: His6 N-terminal (pET28a)

| Binder | binding signal [1] | binding signal [2] [nM] |
| --- | --- | --- |
| B1 | 0.137 KA relative to UGCAUGU |  |
| B2 | 0.315 KA relative to UGCAUGU |  |
| B3 | 0.15 KA relative to UGCAUGU |  |
| B4 | 0.371 KA relative to UGCAUGU |  |
| B5 | 0.355 KA relative to UGCAUGU |  |
| B6 | 0.065 KA relative to UGCAUGU |  |
| B7 | 0.0909 KA relative to UGCAUGU |  |
| B8 | 0.101 KA relative to UGCAUGU |  |
| B9 | 0.0841 KA relative to UGCAUGU |  |
| B10 | 0.0511 KA relative to UGCAUGU |  |
| B11 | 0.094 KA relative to UGCAUGU |  |
| B12 | 0.118 KA relative to UGCAUGU |  |
| B13 | 0.111 KA relative to UGCAUGU |  |
| B14 | 0.0758 KA relative to UGCAUGU |  |
| B15 | 0.116 KA relative to UGCAUGU |  |
| B16 | 0.0451 KA relative to UGCAUGU |  |

| Binder | binding signal [1] | binding signal [2] [nM] |
| --- | --- | --- |
| B17 | 0.107 KA relative to UGCAUGU |  |
| B18 | 0.127 KA relative to UGCAUGU |  |
| B19 | 0.112 KA relative to UGCAUGU |  |
| B20 | 0.115 KA relative to UGCAUGU |  |
| B21 | 0.245 KA relative to UGCAUGU |  |
| B22 | 0.0982 KA relative to UGCAUGU |  |
| B23 | 0.0749 KA relative to UGCAUGU |  |
| B24 | 0.0813 KA relative to UGCAUGU |  |
| B25 | 0.0667 KA relative to UGCAUGU |  |
| B26 | 0.109 KA relative to UGCAUGU |  |
| B27 | 0.107 KA relative to UGCAUGU |  |
| GCAUGUC (ssRNA) |  | 42.1 |
| B28 | 0.492 KA relative to UGCAUGU |  |
| B29 | 0.206 KA relative to UGCAUGU |  |
| B30 | 0.112 KA relative to UGCAUGU |  |
